{
  "source": "patent US10745487B2",
  "about": "“Method of treating cancer by administering an anti-LGR5 monoclonal antibody” (Bionomics Limited, priority 2016, dated 2020)",
  "key": {"[1]": {"system": "Wnt pathway genes (CTNNB1, β-catenin)"}, "[2]": {"system": "CT3 primary CRC xenograft", "test": "CT3 primary CRC xenograft tumor growth", "format": "in vivo, CB.17 SCID mice", "conditions": "compared to PBS and MOPC antibody controls, after 4 doses, 15 mg/kg twice weekly", "source_text": "The CT3 primary CRC xenograft model was derived from a patient with stage III mCRC with mutations in K-Ras, H-Ras, APC, PI3K, PTEN, STK11, RB1, TP53, FGFR2, VANGL2, and ISCO. Low passage cryopreserved CT3 primary xenograft tumor fragments were implanted into 5 SCID/Bg mice. Tumors averaging ˜1150 mm3 pooled from five CT3 primary xenograft-bearing SCID mice were removed at day 41 post-implant, dissociated and re-implanted into CB.17 SCID mice in Matrigel subcutaneously, and monitored twice weekly for tumor size and body weight. When tumors reached an average of 130 mm3, mice were randomized (34 days post implant). […] Mice were dosed BIW at 15 mg/kg for 2.5 weeks (5 doses), starting on day 34. All mice were monitored twice weekly for body weight and tumor size, as well as overall health and appearance, until termination."}, "BMCRC086 cells": {"system": "BMCRC086 cells", "test": "BMCRC086 metastatic colorectal cancer, prophylactic treatment", "format": "in vivo, CB.17 SCID mice", "conditions": "in combination with FOLFIRI, 15 mg/kg BIW", "description": "The in vivo study was performed using low passage colorectal cancer cells (BMCRC086) derived from a liver met of a patient with colorectal cancer. On Day 0, BMCRC086 cells were thawed, suspended in RPMI:Matrigel (1:1) and injected subcutaneously into the rear flank of CB.17 SCID mice. Animals were monitored twice weekly for tumor size and body weight. […] Mice were dosed with FOLFIRI (30 mg/kg Fluorouracil and 90 mg/kg Leucovorin on days 7, 12, 17, 22, 27 and 32; 24 mg/kg Irinotecan on days 8, 13, 18, 23, 28 and 33) for 4 weeks (6 doses)."}, "[3]": {"molecular_target": "LGR5 ternary complexes (LGR5-Fc, RSPO or Norrin, RNF43/ZNRF3/LRP6) (Homo sapiens, UniProt O75473)", "sequence (O75473 22-561, one chain of several)": "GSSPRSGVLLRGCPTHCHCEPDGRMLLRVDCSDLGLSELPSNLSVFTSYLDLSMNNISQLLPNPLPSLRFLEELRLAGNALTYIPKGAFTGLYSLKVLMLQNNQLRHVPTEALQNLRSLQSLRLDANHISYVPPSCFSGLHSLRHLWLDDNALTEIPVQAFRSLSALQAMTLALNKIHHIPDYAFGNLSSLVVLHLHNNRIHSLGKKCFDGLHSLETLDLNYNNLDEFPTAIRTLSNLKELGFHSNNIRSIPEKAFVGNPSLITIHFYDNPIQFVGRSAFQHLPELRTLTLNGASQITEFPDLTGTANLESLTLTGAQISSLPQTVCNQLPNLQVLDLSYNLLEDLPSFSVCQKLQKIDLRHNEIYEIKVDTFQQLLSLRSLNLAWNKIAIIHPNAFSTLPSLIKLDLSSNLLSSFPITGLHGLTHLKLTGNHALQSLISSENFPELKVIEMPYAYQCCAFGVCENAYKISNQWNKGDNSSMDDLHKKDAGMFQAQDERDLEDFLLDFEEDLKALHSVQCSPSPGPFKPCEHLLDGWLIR", "conditions": "RSPO and Norrin ligands; co-receptors RNF43, ZNRF3, LRP6", "description": "Binding of ligand alone (RSPO or Norrin) to LGR5 is not sufficient to induce LGR5 signaling. Instead, LGR5 forms ternary complexes with multiple co-receptors to drive signaling. […] RNF43-Fc, ZNRF3-Fc, and LRP6-Fc were coated on a 96-well high binding plate at 4 μg/mL in 1×PBS. The plate was incubated overnight at 4° C. and blocked with PBS+1% BSA. […] Triplicate wells were used for each condition was tested in triplicate. […] 1:10,000 dilution of anti-mouse IgG HRP (JIR) was used for detection. Plate was developed with TMB (Thermo), and data were collected on SpectraMax Plus 384 plate reader at 450 nm. Data analysis was done using GraphPad Prism 6 program."}, "[4]": {"system": "CT1 cancer stem cell population", "test": "Flow cytometry of cancer stem cell markers in dissociated tumors", "format": "in vivo, mice", "source_text": "For flow cytometric analysis, cells from 5 individual tumors were stained with a variety of antibodies against stem cell specific markers CD44, and CD166. Tumors were dissociated, depleted for mouse cells and then counted for viable cells. Dissociated cells were used for analysis of cell surface stem cell marker expression by flow cytometry."}, "AsPC-1 cells": {"system": "AsPC-1 cells", "test": "AsPC-1 pancreatic cancer xenograft tumor growth", "format": "in vivo, CB17.SCID mice", "source_text": "CB17.SCID mice were implanted with AsPC-1 cells (in matrigel+RPMI in a 1:1 ratio)."}, "MDA-MB-231-LM3 tumors": {"system": "MDA-MB-231-LM3 tumors", "test": "MDA-MB-231-LM3 triple negative breast cancer tumor growth", "format": "in vivo, CB.17 SCID mice", "conditions": "15 mg/kg BIW, 7 doses", "description": "This in vivo study was performed using low passage triple negative breast cancer cells (ER−, PR−, no HER2 overexpression). MDA-MB-231-LM3 cells were maintained in adherent culture with DMEM/10% FBS/anti-anti medium. CB.17 SCID mice were injected on day 0 with MDA-MB-231-LM3 cells in RPMI:Matrigel (1:1) into the 4th mammary fat pad and monitored twice weekly for tumor size and body weight. At day 27, MDA-MB-231-LM3 tumors were randomized into 4 groups of 10 mice when tumors reached ˜155 mm^3. Mice were treated with PBS, antibody control MOPC, or 18G7H6A3. Mice were dosed BIW at 15 mg/kg for 3.5 weeks (7 doses)."}, "[5]": {"system": "PANC1 tumors (cancer stem cell frequency)", "test": "PANC1 limiting dilution re-implant assay", "format": "in vivo, CB.17 SCID mice", "conditions": "in combination with gemcitabine", "source_text": "Tumors cells from these treatment groups were harvested, dissociated, pooled and re-implanted in a limiting dilution assay (500, 1500, 4500 or 13500 cells/animal) into a new cohort of CB.17 SCID mice and allowed to grow with no treatment."}},
  "data": [
    {"substance": "18G7H6A3", "values": [
      {"measurement": "Wnt pathway signaling (quantification of Western blot data)", "setting": "[1]; ASPC1 and PANC1 tumors", "result": "significant inhibition of Wnt pathway signaling"},
      {"measurement": "phospho-β-catenin (western blot)", "setting": "[1]; ASPC1 tumors, single agent or in combination with SOC", "result": "upregulated pβ-catenin"},
      {"measurement": "anti-tumor activity in vivo, CT3", "setting": "[2]", "result": "significant anti-tumor activity"},
      {"measurement": "anti-tumor activity compared to FOLFIRI alone", "setting": "BMCRC086 cells", "result": "significant anti-tumor activity"},
      {"measurement": "formation of LGR5 ternary complexes", "setting": "[3]", "result": "significantly reduced the formation of LGR5 ternary complexes"},
      {"measurement": "live events in cancer stem cell population (CD166+/CD44+, LGR5+/CD166+, LGR5+/CD166+/CD44+)", "setting": "[4]", "result": "reduces the number of live events"},
      {"measurement": "tumor growth inhibition compared to gemcitabine alone", "setting": "AsPC-1 cells; in combination with gemcitabine (90 mg/kg), day 61 post implantation", "result": "up to 36%"},
      {"measurement": "tumor growth inhibition compared to saline and/or control IgG", "setting": "AsPC-1 cells; single agent, 15 mg/kg twice per week ip, day 41 post implantation", "result": "≤ 40", "unit": "%"},
      {"measurement": "tumor growth inhibition compared to MOPC antibody", "setting": "MDA-MB-231-LM3 tumors", "result": 49.3, "unit": "%"},
      {"measurement": "tumor growth inhibition compared to PBS", "setting": "MDA-MB-231-LM3 tumors", "result": 60.7, "unit": "%"},
      {"measurement": "tumorigenicity in limiting dilution re-implant compared to gemcitabine alone", "setting": "[5]", "result": "greatly decreased tumorigenicity"}
    ]}
  ]
}
